Over roughly 81,000 sequences, “one-hybrid fitness for binding parS DNA” has its median near -0.17; the highest 2% begin near 0.51. The list shows a part of the results.
B1: Caulobacter ParB omega fusion; a variant is named by its letters at X, in order, B8GW30 (parent)
chain: MESVVVGEPGMSEGRRGLGRGLSALLGEVDAAPAQAPGEQLGGSREAPIEILQRNPDQPRRTFREEDLEDLSNSIREKGVLQPILVRPSPDTAGEYQIVAGERAWRAAQRAGLKTVPIMVRELDDLAVLEIGIIENVQRADLNVLEEALSYKVLMEKFERTQENIAQTIGKSXSHVANXMRLLXLPDEVQSYLVSGELTAXHARAIAAAADPVALAKQIIEGGLSVRETEALARKAPNLSAGKSKGGRPPRVKDTDTQALESDLSSVLGLDVSIDHRGSTGTLTITYATLEQLDDLCNRLTRGI

Variants of: B1
Assay: one-hybrid fitness for binding parS DNA (scaled: cognate 1, non-cognate 0); higher = stronger binding
Settings: with parS DNA site
Procedure, shortened: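 On M9-minus-histidine containing 0.1 mM IPTG and 5 mM 3-AT, E. coli USO cells with a HIS3 reporter, site 19 bp from the promoter, grew 48 hours at 37°C to select Caulobacter ParB libraries randomised at four specificity codons. Plasmids from before and after were Illumina-sequenced, with three replicate libraries pooled and variants under 10 reads left out. Fitness is the log change in variant-to-wild-type read ratio, rescaled against cognate and non-cognate.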

| Variant | one-hybrid fitness for binding parS DNA |
| --- | --- |
| HRPM | ≤ 0.2 |
| IFHR | ≤ 0.2 |
| DNPG | ≤ 0.2 |
| PNEG | ≤ 0.2 |
| KQNT | ≤ 0.2 |
| HGDG | ≤ 0.2 |
| ESRQ | ≤ 0.2 |
| PIYC | ≤ 0.2 |
| LTYR | ≤ 0.2 |
| RAYC | 0.99 |
| YRNY | ≤ 0.2 |
| TATL | ≤ 0.2 |
| PLTC | ≤ 0.2 |
| VQWS | ≤ 0.2 |
| ARME | ≤ 0.2 |
| GPTS | ≤ 0.2 |
| ELQG | ≤ 0.2 |
| WLKQ | ≤ 0.2 |
| SATT | ≤ 0.2 |
| VCNL | ≤ 0.2 |
| CYCL | ≤ 0.2 |
| RKTR | ≤ 0.2 |
| DFNS | ≤ 0.2 |
| EVRI | ≤ 0.2 |
| TDAD | ≤ 0.2 |

| Variant | one-hybrid fitness for binding parS DNA |
| --- | --- |
| LRQT | ≤ 0.2 |
| SRFH | ≤ 0.2 |
| MTPK | ≤ 0.2 |
| SDSH | ≤ 0.2 |
| HRPG | ≤ 0.2 |
| RYSY | 0.425 |
| KYNT | ≤ 0.2 |
| PFLA | ≤ 0.2 |
| GAIL | ≤ 0.2 |
| TLNC | ≤ 0.2 |
| HTHM | ≤ 0.2 |
| PDHG | ≤ 0.2 |
| EYCR | ≤ 0.2 |
| RFYK | ≤ 0.2 |
| GTVS | ≤ 0.2 |
| APYI | ≤ 0.2 |
| VMNV | ≤ 0.2 |
| KPPY | ≤ 0.2 |
| ITHL | ≤ 0.2 |
| RTVM | 0.315 |
| NWST | ≤ 0.2 |
| ENYW | ≤ 0.2 |
| QHNI | ≤ 0.2 |
| QRFG | ≤ 0.2 |
| DKWG | ≤ 0.2 |

| Variant | one-hybrid fitness for binding parS DNA |
| --- | --- |
| QRVH | ≤ 0.2 |
| WHFT | ≤ 0.2 |
| SQVC | ≤ 0.2 |
| LCEC | ≤ 0.2 |
| WRTN | ≤ 0.2 |
| PNYV | ≤ 0.2 |
| CILA | ≤ 0.2 |
| RAKA | 0.737 |
| SDTF | ≤ 0.2 |
| PPLL | ≤ 0.2 |
| DTRT | ≤ 0.2 |
| FCNT | ≤ 0.2 |
| CWSA | ≤ 0.2 |
| RYEK | ≤ 0.2 |
| PERW | ≤ 0.2 |
| FEDS | ≤ 0.2 |
| LMPS | ≤ 0.2 |
| KIYA | 0.271 |
| PKSH | 0.3 |
| SENT | ≤ 0.2 |
| SSPQ | ≤ 0.2 |
| QCIS | ≤ 0.2 |
| AMDA | ≤ 0.2 |
| YGAC | ≤ 0.2 |
| SVIA | ≤ 0.2 |

| Variant | one-hybrid fitness for binding parS DNA |
| --- | --- |
| HQYC | ≤ 0.2 |
| ESLT | ≤ 0.2 |
| PTMM | ≤ 0.2 |
| VTFK | ≤ 0.2 |
| DRMG | ≤ 0.2 |
| KNGT | ≤ 0.2 |
| IFTM | ≤ 0.2 |
| RKIF | ≤ 0.2 |
| FFWR | ≤ 0.2 |
| PSTM | ≤ 0.2 |
| EQHT | ≤ 0.2 |
| NFNR | ≤ 0.2 |
| YVSG | ≤ 0.2 |
| DSRD | ≤ 0.2 |
| HGMS | ≤ 0.2 |
| RTCE | ≤ 0.2 |
| FLNM | ≤ 0.2 |
| LHNT | ≤ 0.2 |
| GRVL | ≤ 0.2 |
| HCGG | ≤ 0.2 |
| GANM | ≤ 0.2 |
| TAAM | ≤ 0.2 |
| TIMK | ≤ 0.2 |
| RLPK | ≤ 0.2 |
| INMR | ≤ 0.2 |

| Variant | one-hybrid fitness for binding parS DNA |
| --- | --- |
| QIFK | ≤ 0.2 |
| DKVI | ≤ 0.2 |
| DVMC | ≤ 0.2 |
| ALPN | ≤ 0.2 |
| WHCC | ≤ 0.2 |
| SRWI | ≤ 0.2 |
| VHDG | ≤ 0.2 |
| NWTS | ≤ 0.2 |
| NLPI | ≤ 0.2 |
| SPEF | ≤ 0.2 |
| WCKL | ≤ 0.2 |
| YDAG | ≤ 0.2 |
| PHRM | ≤ 0.2 |
| QLRA | ≤ 0.2 |
| TFRG | ≤ 0.2 |
| SWRF | ≤ 0.2 |
| HLCT | ≤ 0.2 |
| TQRW | ≤ 0.2 |
| LDSC | ≤ 0.2 |
| NAIF | ≤ 0.2 |
| WPFI | ≤ 0.2 |
| QPSH | ≤ 0.2 |
| WSRT | ≤ 0.2 |
| EGNG | ≤ 0.2 |
| HSPR | ≤ 0.2 |

| Variant | one-hybrid fitness for binding parS DNA |
| --- | --- |
| YIYS | ≤ 0.2 |
| AFVQ | ≤ 0.2 |
| SFPW | ≤ 0.2 |
| SENG | ≤ 0.2 |
| HDMV | ≤ 0.2 |
| CCSC | ≤ 0.2 |
| NSSI | ≤ 0.2 |
| QKAN | ≤ 0.2 |
| CQKM | ≤ 0.2 |
| HIPH | ≤ 0.2 |
| RTHG | 1.01 |
| QHLL | ≤ 0.2 |
| DTKS | ≤ 0.2 |
| AYMA | ≤ 0.2 |
| PFES | ≤ 0.2 |
| GVIG | ≤ 0.2 |
| RGSL | ≤ 0.2 |
| AMMS | ≤ 0.2 |
| LSLM | ≤ 0.2 |
| TLFG | ≤ 0.2 |
| NHLV | ≤ 0.2 |
| DLIL | ≤ 0.2 |
| CVGS | ≤ 0.2 |
| VQPA | ≤ 0.2 |
| YLFS | ≤ 0.2 |

| Variant | one-hybrid fitness for binding parS DNA |
| --- | --- |
| VFLD | ≤ 0.2 |
| YMAV | ≤ 0.2 |
| NCID | ≤ 0.2 |
| PVQT | ≤ 0.2 |
| ENDC | ≤ 0.2 |
| NSTM | ≤ 0.2 |
| KCIR | ≤ 0.2 |
| HIGS | ≤ 0.2 |
| KKNV | ≤ 0.2 |
| PCQD | ≤ 0.2 |
| STSI | ≤ 0.2 |
| FRSH | ≤ 0.2 |
| IPED | ≤ 0.2 |
| PVLL | ≤ 0.2 |
| RHYV | ≤ 0.2 |
| TWKG | ≤ 0.2 |
| VIMR | ≤ 0.2 |
| SWSW | ≤ 0.2 |
| RVQQ | ≤ 0.2 |
| KRIM | ≤ 0.2 |
| WFVR | ≤ 0.2 |
| YRTT | ≤ 0.2 |
| FHHG | ≤ 0.2 |
| QLLF | ≤ 0.2 |
| IINM | ≤ 0.2 |

| Variant | one-hybrid fitness for binding parS DNA |
| --- | --- |
| SKQL | ≤ 0.2 |
| SSCA | ≤ 0.2 |
| NRGL | ≤ 0.2 |
| GEHS | ≤ 0.2 |
| VNMR | ≤ 0.2 |
| PDAH | ≤ 0.2 |
| LTAS | ≤ 0.2 |
| VGLT | ≤ 0.2 |
| VHLV | ≤ 0.2 |
| MADG | ≤ 0.2 |
| KLTT | ≤ 0.2 |
| RCMS | 1.01 |
| RCQP | ≤ 0.2 |
| LGHR | ≤ 0.2 |
| TWMK | ≤ 0.2 |
| KLKH | ≤ 0.2 |
| NIIR | ≤ 0.2 |
| VVNH | ≤ 0.2 |
| RLRQ | ≤ 0.2 |
| PCLR | ≤ 0.2 |

From a collection of fitness landscapes (doi:10.1016/j.celrep.2020.107928)
